# Measured values from article PMC4336329 (PLoS ONE, 2015).
# Among all 310,000 compounds or so, about 2,200 (0.71%) showed an effect of 50% or more. The effect is printed as a negative number. This is one part of the list.
# Target: human ether-à-go-go-related gene (hERG) potassium channel (human, UniProt Q12809)
# Experiment: primary screen, population patch clamp on CHO cells stably expressing hERG
# Chain of human ether-à-go-go-related gene (hERG) potassium channel (Q12809 whole entry, looked up): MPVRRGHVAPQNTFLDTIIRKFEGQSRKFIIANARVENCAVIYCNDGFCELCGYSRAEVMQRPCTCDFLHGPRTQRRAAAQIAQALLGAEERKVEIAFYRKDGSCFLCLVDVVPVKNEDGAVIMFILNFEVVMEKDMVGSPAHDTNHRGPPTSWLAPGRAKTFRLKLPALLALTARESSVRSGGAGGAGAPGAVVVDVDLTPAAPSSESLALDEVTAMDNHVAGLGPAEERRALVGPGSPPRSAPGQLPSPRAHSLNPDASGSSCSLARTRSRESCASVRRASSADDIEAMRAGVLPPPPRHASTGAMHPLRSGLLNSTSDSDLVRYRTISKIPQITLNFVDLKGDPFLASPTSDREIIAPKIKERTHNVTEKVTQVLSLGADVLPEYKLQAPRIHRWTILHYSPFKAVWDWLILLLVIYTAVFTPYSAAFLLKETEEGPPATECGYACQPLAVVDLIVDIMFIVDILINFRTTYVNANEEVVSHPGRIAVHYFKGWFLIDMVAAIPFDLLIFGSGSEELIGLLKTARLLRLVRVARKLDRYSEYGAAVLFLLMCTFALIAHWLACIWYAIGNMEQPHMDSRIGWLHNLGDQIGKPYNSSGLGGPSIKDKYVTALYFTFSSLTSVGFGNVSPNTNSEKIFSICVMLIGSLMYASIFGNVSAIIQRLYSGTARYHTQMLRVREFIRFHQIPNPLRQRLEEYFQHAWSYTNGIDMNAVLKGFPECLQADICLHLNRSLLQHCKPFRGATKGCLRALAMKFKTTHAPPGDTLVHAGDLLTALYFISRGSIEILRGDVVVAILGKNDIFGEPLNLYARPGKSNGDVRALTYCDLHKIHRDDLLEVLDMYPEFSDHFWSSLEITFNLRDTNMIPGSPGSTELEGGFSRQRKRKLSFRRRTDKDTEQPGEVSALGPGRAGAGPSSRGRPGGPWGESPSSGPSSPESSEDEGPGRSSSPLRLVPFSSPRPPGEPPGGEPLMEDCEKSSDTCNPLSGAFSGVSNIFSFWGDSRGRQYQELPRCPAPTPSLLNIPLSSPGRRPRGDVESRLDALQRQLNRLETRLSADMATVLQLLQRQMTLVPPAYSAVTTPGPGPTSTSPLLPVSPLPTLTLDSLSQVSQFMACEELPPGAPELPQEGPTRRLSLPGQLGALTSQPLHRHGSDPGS
row,SMILES,"hERG current change (%, negative = inhibition) at 1uM [%]"
1,O=C(O)CSc1nc2c(c(C(F)(F)F)n1)CCc1ccccc1-2,16.2
2,CCSc1nc(O)c(Cc2ccccc2)c(=O)[nH]1,1.39
3,COc1ccc(-c2nn(-c3ccccc3)cc2CNCc2cccnc2)c(F)c1,0.0314
4,CCOC(=O)NC(=O)/C(N=Nc1cccc(C(F)(F)F)c1)=C(\C)O,7.38
5,CN1CCN(S(=O)(=O)c2ccc3c(c2)OCCO3)CC1,9.55
6,COCc1cc(C)n(CC(=O)Nc2c(C)cccc2C)c(=O)c1C#N,6.18
7,O=C(Nc1sc2c(c1C(=O)O)CCC2)c1ccccc1F,-0.607
8,c1ccc2sc(N3CCN(Cc4nnnn4CC4CCCO4)CC3)nc2c1 (stereo not shown),-9.39
9,CCc1nn(C(C)C(=O)N2CC(C)CC(C)C2)c(=O)c2cc3occc3n12 (stereo not shown),3.55
10,Cc1cccc(C(=O)N2CCc3c([nH]c4ccccc34)C2CC(C)C)n1 (stereo not shown),6.68
11,O=C(CSc1nc2cc([N+](=O)[O-])ccc2n1-c1ccc(F)cc1)NC1CCS(=O)(=O)C1 (stereo not shown),-2.32
12,COc1ccc(C(=O)N2CC3(C)CC2CC(C)(C)C3)cc1 (stereo not shown),11.7
13,CCOc1ccc(-n2c(SCC(=O)Nc3cc(C(=O)O)ccc3Cl)nc3ccccc3c2=O)cc1,20.5
14,CCCC(=O)Nc1ccc(N2CCN(C(=O)c3ccccc3C)CC2)cc1,1.89
15,CCOCCCNC(=O)c1cn(C)c2ccc(S(=O)(=O)N3CCCC3)cc2c1=O,16.7
16,S=C(NCCCn1ccnc1)Nc1ccc(Cl)cc1Cl,9.18
17,O=C(NC1CCCCC1)c1ccc(CNc2nc(=S)[nH]c3ccccc23)cc1,4.71
18,CC(C)c1ccc(OCC(=O)Nc2cccc3c2CCCC3)cc1,5
19,CS(=O)(=O)c1ccc(Cl)c(NC(=O)Cc2c(F)cccc2Cl)c1,13.5
20,O=C(CSC1CCCCC1)Nc1nccs1,3.01
21,O=C1CC(=O)N(Cc2ccccc2)C(=S)N1,11.3
22,CN1C(=O)SC(Nc2ccccc2C(=O)O)C1=O (stereo not shown),5.34
23,CCOC(=O)c1cnn(-c2ccccc2)c1NC(=O)c1ccccc1,5.31
24,O=C(NCc1cccs1)c1ccc([N+](=O)[O-])cc1,-0.22
25,COCc1cc(C)nc(SCC(=O)Nc2ccccc2N2CCOCC2)c1C#N,8.19
